Measured values as given in PubChem BioAssay AID504832 (National Center for Advancing Translational Sciences (NCATS), 2011).
The campaign covered roughly 310,000 compounds. About 18,000 (5.8%) were called active. The inconclusive results got no clear call from the source; some entries with a clear call stand among them for comparison. The call rests on the fitted dose curve; in most records, active means well fitted inhibition curve with a large enough effect; inconclusive means small, poorly fitted or top-dose-only effect, or another doubt; inactive means no such curve, though single readings can be large or run the other way. Potencies of inconclusive entries are left out as doubtful fits.

Test: Primary qHTS for delayed death inhibitors of the malarial parasite plastid, 48 hour incubation
Conditions: P. falciparum luciferase growth in erythrocytes; series mostly up to 28.7 µM
In short: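 In quantitative HTS format, infected erythrocytes bearing luciferase-reporter parasites were treated for a single generation at 37 C. Luminescence after adding detection reagent served as the growth measure.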
Potency means the concentration at half of the fitted maximal effect; tags describe the fitted curve by direction and shape.

SMILES	Potency
CCN1C(N(C)CCc2cccs2)=N[C@@H](c2ccccc2)C(C(=O)OC)=C1C	inconclusive [inhibitor, full curve]
CC(C)(C)NC(=O)NC(=O)CN1CCN(S(=O)(=O)c2ccc3c(c2)OCCO3)CC1	inconclusive [inhibitor, single point]
O=c1c2ccccc2c(-c2cccc(C(F)(F)F)c2)nn1-c1ccccc1	inconclusive [inhibitor, partial curve, poor fit]
O=C(O)c1ccc(NC(=S)NC(=O)c2cccc(COc3ccccc3)c2)cc1	inactive
O=C(Nc1ccc(NS(=O)(=O)c2ccccc2)cc1)c1ccc(Cl)cc1	inactive
CCOC(=O)c1c(-c2ccccc2)oc2ccc(O)cc12	inactive
CC(NC(=O)c1cc(Br)cs1)C1CCCO1 (centres undefined)	inactive
COc1ccc(C(CCNC(C)c2ccccc2)c2ccc(F)cc2)cc1 (centres undefined)	inconclusive [inhibitor, single point]
COc1ccc(N2CCN(S(=O)(=O)c3ccc(Cl)s3)CC2)cc1	inconclusive [inhibitor, full curve, poor fit]
COc1ccccc1N=CC=C1OC(C)(C)C(C)(C)O1	inconclusive [inhibitor, partial curve, poor fit]
Cc1cc(C)c(/C=N/n2c(C)cc(C)c(C#N)c2=O)c(C)c1	inconclusive [inhibitor, partial curve]
C/C(=N\NC(=O)CSc1nc2ccccc2c(=O)n1-c1ccccc1C)c1cccs1	inconclusive [inhibitor, full curve, poor fit]
CCOC(=O)c1cc2c(nc1N)CCCC2	inactive
COc1ccc(OC)c(S(=O)(=O)Nc2cc3c4c(c2)CC(=O)N4CCC3)c1	inconclusive [inhibitor, single point]
Cc1c(NC(=O)c2ccc(NS(=O)(=O)c3ccccc3)cc2)c(=O)n(-c2ccccc2)n1C	inactive
Cc1cc(C)c2cc(CN(CCN(C)C)C(=O)Nc3ccccc3Cl)c(=O)[nH]c2c1	inconclusive [inhibitor, single point]
CCc1nnc(NC(=O)CCC(=O)N2CCN(S(=O)(=O)c3cc(Cl)ccc3OC)CC2)s1	inconclusive [inhibitor, partial curve]
O=C(N/N=C/c1sc(N2CCOCC2)nc1-c1ccccc1)c1ccc(O)cc1	inconclusive [inhibitor, single point]
COc1cccc(CNc2cccc(C(F)(F)F)c2)c1O	inactive
CCOc1ccc2c(C)cc(=O)oc2c1OCC	inconclusive [inhibitor, full curve, poor fit]
COc1ccc(NC(=S)N2CCN(S(=O)(=O)c3ccc(OC)cc3)CC2)cc1	inconclusive [inhibitor, partial curve, poor fit]
Cc1ccc(C2C=NN(c3ccccc3)C2=O)cc1 (centres undefined)	active: 6.57 µM

SMILES	Potency
Cc1nc2ncnn2c(C)c1Cc1cccc(C(F)(F)F)c1	inconclusive [inhibitor, partial curve, poor fit]
CC1=C(C(=O)OCC2CCCO2)C(c2ccccc2OC(C)C)C2=C(CC(c3ccco3)CC2=O)N1 (centres undefined)	active: 3.29 µM
CNC(=S)N1N=C(c2ccc(C)cc2)CC1c1cc(OC)ccc1OC (centres undefined)	inconclusive [inhibitor, single point]
O=C(CN1C(=O)COc2ccc(S(=O)(=O)N3CCCCCC3)cc21)NCc1ccc(F)cc1	inconclusive [inhibitor, single point]
CN1C2CCC1CC(NS(=O)(=O)c1cc(Cl)c(Cl)cc1Cl)C2 (centres undefined)	inconclusive [inhibitor, single point]
Cc1cc(C)c2c(n1)nn1c(N3CCN(c4ccccc4)CC3)cc(C)nc21	inconclusive [inhibitor, partial curve, poor fit]
COC(=O)c1sc(S(=O)(=O)N2CCN(c3ccccc3)CC2)c(C(=O)OC)c1C	inconclusive [inhibitor, partial curve, poor fit]
CCCc1cc(C(=O)Nc2cccc([N+](=O)[O-])c2)cs1	inactive
COc1cc2c(cc1OC)C1OC(c3ccsc3)(C2)Oc2cc(C)oc(=O)c21 (centres undefined)	inconclusive [inhibitor, partial curve, poor fit]
O=C(CCc1ccc(Oc2cc([N+](=O)[O-])cc([N+](=O)[O-])c2)cc1)N1CCCCC1	active: 11.7 µM
COC(=O)[C@H](CCSC)NC(=O)Nc1cccc(Br)c1	inactive
Cc1cccc(NC(=O)C2C(c3ccccc3)C2(Cl)Cl)c1 (centres undefined)	inconclusive [inhibitor, partial curve]
Cc1ccc2c(CN(C)Cc3ccc(Cl)cc3Cl)cc(=O)oc2c1	inconclusive [inhibitor, single point]
CCN(CC)S(=O)(=O)c1ccc(Cl)c(C(=O)OC2CC(C)OC2=O)c1 (centres undefined)	inactive
COC(=O)c1c(NC(=O)CN2CCC3(O)CCCCC3C2c2ccc(OC)cc2OC)sc(C)c1C (centres undefined)	active: 11.7 µM
COc1cc(C(=S)N2CCOCC2)ccc1OC(=O)c1cccc(C)c1	inactive
O=C(Nc1ccncc1)C1CC1c1ccccc1 (centres undefined)	inconclusive [inhibitor, full curve, poor fit]
Cc1c(C)c2ccc(OCC(=O)N(C)C3CCS(=O)(=O)C3)c(C)c2oc1=O (centres undefined)	inconclusive [inhibitor, single point]
COc1cc(OC)cc(N2C(=O)CSCC2=O)c1	active: 2.62 µM
CCc1ccc(NC(=O)C(C)OC(=O)C2CCN(c3ccc(C(F)(F)F)cn3)CC2)cc1 (centres undefined)	inconclusive [inhibitor, partial curve]
C[N+](C)(C)C[C@H](O)CC(=O)[O-]	inconclusive [inhibitor, partial curve, poor fit]
Cc1cc([N+](=O)[O-])nn1CCCC(=O)Nc1cc(Cl)ccc1Cl	inactive
